The list shows a part of the results. Sequences were assembled here from the parent chain. Inactive controls read about 0.05.
B1: TEV protease; numbered along this chain (parent)
chain: MGESLFKGPRDYNPISSSICHLTNESDGHTTSLYGIGFGPFIITNKHLFRRNNGTLVVQSLHGVFKVKDTTTLQQHLVDGRDMIIIRMPKDFPPFPQKLKFREPQREERICLVTTNFQTKSMSSMVSDTSCTFPSGDGIFWKHWIQTKDGQCGSPLVSTRDGFIVGIHSASNFTNTNNYFTSVPKNFMELLTNQEAQQWVSGWRLNADSVLWGGHKVFMVKPEEPFQPVKEATQL

Variants of: B1
Assay: raw area under fraction-flipped curve 0-4 h after induction (AUC4h, not background-subtracted), DNA-recorder readout of cleavage of the substrate (dimensionless); higher = more cleavage of the substrate by the protease variant
Settings: temperature: 34 °C; time window: 0-4 h after rhamnose induction
Protocol: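 In vivo DNA recorder in E. coli TOP10(DE3) ΔrhaA at 34 °C. Each TEVp single-site mutant (parent TEVp 0) is paired with a single-site variant of the 7-mer TEVs (canonical ENLYFQ|S). The substrate sits between flexible linkers in a Bxb1-sfGFP-TEVs-SsrA fusion, so cleavage stabilises Bxb1 and speeds flipping of a recombination array, read by NGS. The value is the raw area under the fraction-flipped curve over 0-4 h after rhamnose induction (AUC4h), with ≥20 reads per time point. It is not background-subtracted; inactive controls average about 0.047.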
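Also: Bxb1 expression induced with 0.2% (w/v) L-rhamnose at OD600 near 0.5, cultures sampled hourly, flipped fraction per protease–substrate barcode pair counted by paired-end Illumina sequencing.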

Row | Variant | area with substrate EALYFQS | area with substrate ECLYFQS | area with substrate EDLYFQS | area with substrate EFLYFQS | area with substrate EGLYFQS | area with substrate EILYFQS | area with substrate EPLYFQS | area with substrate ESLYFQS | area with substrate EVLYFQS | area with substrate EWLYFQS | area with substrate EYLYFQS | area with substrate EELYFQS | area with substrate EKLYFQS | area with substrate ELLYFQS | area with substrate EMLYFQS | area with substrate EQLYFQS | area with substrate ERLYFQS | area with substrate ETLYFQS | area with substrate EHLYFQS
1 | Q151M | 0.119 | 0.132 | 0.117 | 0.103 | 0.0903 | 0.107 | 0.102 | 0.13 | 0.107 | 0.104 | 0.0671 |  |  |  |  |  |  |  | 
2 | F38C | 0.13 | 0.0823 | 0.119 | 0.0729 | 0.09 | 0.0788 | 0.108 | 0.0921 | 0.08 | 0.0803 | 0.112 | 0.118 | 0.114 | 0.0605 | 0.0844 | 0.0981 | 0.0956 |  | 
3 | P14Y | 0.107 | 0.0807 | 0.103 |  | 0.0903 | 0.0819 | 0.126 | 0.0998 | 0.0836 | 0.0784 |  | 0.07 | 0.11 | 0.0846 | 0.0952 | 0.0997 | 0.101 | 0.125 | 
4 | R109Q | 0.0986 | 0.121 | 0.122 |  | 0.112 | 0.05 | 0.0922 |  | 0.0971 | 0.0898 | 0.0823 | 0.122 |  | 0.097 | 0.123 |  |  | 0.101 | 
5 | N52V | 0.0685 | 0.0773 | 0.0817 |  | 0.0547 | 0.0781 |  | 0.0668 | 0.0581 |  | 0.0822 | 0.0773 | 0.0692 |  |  | 0.0698 | 0.0716 | 0.0661 | 0.0728
6 | K142I | 0.113 | 0.102 | 0.102 | 0.106 | 0.0755 | 0.0864 |  | 0.135 | 0.119 |  | 0.089 | 0.131 | 0.0847 |  | 0.0944 | 0.143 | 0.105 |  | 
7 | R102H | 0.0505 | 0.0662 | 0.0652 |  | 0.0561 |  | 0.0558 | 0.0615 | 0.0599 | 0.063 | 0.0459 | 0.0664 | 0.0559 | 0.0531 | 0.0509 | 0.062 | 0.0492 | 0.0594 | 0.0561
8 | S171F | 0.0337 | 0.058 | 0.0574 |  | 0.0538 | 0.045 | 0.0366 | 0.0638 |  | 0.0475 | 0.0604 | 0.0477 | 0.0476 |  | 0.0461 | 0.0638 |  |  | 0.0466
9 | Q75F | 0.0961 | 0.0829 | 0.118 |  | 0.115 | 0.078 | 0.0991 | 0.101 | 0.108 | 0.0903 |  | 0.122 | 0.0964 | 0.0957 | 0.12 | 0.118 | 0.0954 | 0.0931 | 
10 | K98A | 0.12 | 0.0867 | 0.134 | 0.141 | 0.0859 | 0.0915 | 0.116 |  | 0.102 | 0.0866 | 0.108 | 0.125 | 0.101 |  | 0.1 | 0.126 |  | 0.125 | 0.0995
11 | I19V | 0.114 | 0.139 | 0.117 |  | 0.0973 | 0.0887 | 0.143 | 0.1 | 0.0966 | 0.103 |  | 0.12 | 0.131 | 0.0997 |  | 0.129 | 0.102 | 0.107 | 0.111
12 | L22I | 0.0863 | 0.0926 | 0.133 |  | 0.103 | 0.105 | 0.0984 | 0.109 | 0.0913 |  | 0.101 |  | 0.122 |  | 0.127 | 0.13 | 0.107 |  | 0.138
13 | G39M | 0.0445 | 0.0448 | 0.0434 |  | 0.0406 | 0.0413 | 0.0413 | 0.0366 | 0.042 | 0.0407 | 0.0538 | 0.0406 | 0.0409 | 0.0344 | 0.0363 | 0.0615 | 0.0377 |  | 0.0462
14 | L61W | 0.101 | 0.0758 | 0.117 |  | 0.0731 | 0.105 | 0.107 | 0.0986 |  | 0.0819 | 0.0887 | 0.102 | 0.0954 | 0.0939 | 0.121 | 0.105 | 0.0863 | 0.0826 | 
15 | I36Y | 0.0528 | 0.0529 | 0.0583 | 0.0526 | 0.0771 | 0.0441 |  | 0.0649 | 0.05 |  |  |  |  |  | 0.0363 |  |  |  | 0.0518
16 | K148Q | 0.122 | 0.0877 | 0.0825 |  | 0.103 | 0.113 | 0.0533 | 0.0807 | 0.0876 | 0.108 | 0.152 |  | 0.0938 |  |  |  |  | 0.145 | 0.136
17 | G166M | 0.0479 | 0.0456 | 0.0875 |  | 0.0555 | 0.0412 | 0.0313 | 0.051 | 0.0435 | 0.0342 | 0.0585 | 0.0224 | 0.0332 | 0.0527 |  |  | 0.0545 |  | 0.0344
18 | E223I | 0.0874 | 0.0822 | 0.111 | 0.079 | 0.0712 | 0.0692 |  | 0.0777 | 0.09 | 0.0867 | 0.0858 | 0.0951 | 0.0835 | 0.0853 |  | 0.0944 |  | 0.0998 | 
19 | I84E | 0.066 | 0.06 | 0.0977 |  | 0.0539 | 0.0408 | 0.0527 | 0.0541 | 0.0783 | 0.0499 | 0.052 | 0.0731 | 0.0632 | 0.0571 | 0.0628 | 0.062 | 0.056 | 0.0436 | 0.0409
20 | E25N | 0.13 | 0.114 | 0.147 |  |  | 0.105 | 0.116 | 0.132 | 0.115 | 0.0971 | 0.13 | 0.133 | 0.105 |  | 0.117 | 0.129 | 0.11 | 0.114 | 0.129
21 | V229C | 0.113 | 0.106 | 0.132 |  | 0.0882 | 0.0986 | 0.141 | 0.12 | 0.1 |  | 0.102 | 0.0929 | 0.123 |  | 0.155 | 0.105 |  |  | 
22 | V229F | 0.107 | 0.0944 | 0.103 |  | 0.102 | 0.109 |  | 0.0995 | 0.098 | 0.0898 |  | 0.121 | 0.107 |  |  |  | 0.0787 | 0.0979 | 
23 | V126A | 0.113 | 0.0919 | 0.152 |  | 0.0952 | 0.1 | 0.131 | 0.106 | 0.0941 |  |  | 0.113 | 0.103 |  | 0.12 | 0.125 | 0.112 | 0.166 | 0.069
24 | I145K | 0.0518 | 0.0677 | 0.0587 |  | 0.0577 | 0.0469 | 0.0646 | 0.0594 | 0.0776 |  | 0.0514 |  | 0.0527 |  | 0.0466 | 0.0592 | 0.0503 |  | 0.0615

From the supplement of paper PMC12217912
